Laboratory results reported in article PMC5540273 (PLoS ONE, 2017).
For some assays here: Shown are results outside the selection of strong results, which stands elsewhere. The list shows a part of the results, in another mix than the full data.

What was measured:
Conditions in all cases: concentration: 1 μM,replicates: in singlicate; n = 1
TXK = tested on: TXK
[1] = tested on: TYK2(JH1domain-catalytic)
[2] = tested on: TYK2(JH2domain-pseudokinase)
TYRO3 = tested on: TYRO3
ULK1 = tested on: ULK1
ULK2 = tested on: ULK2
ULK3 = tested on: ULK3
VEGFR2 = tested on: T1, VEGFR2
T1 construct: gene KDR

VPS34 = tested on: T2, VPS34
T2 construct: gene PIK3C3

VRK2 = tested on: VRK2
WEE1 = tested on: WEE1
WEE2 = tested on: WEE2
WNK1 = tested on: WNK1
WNK2 = tested on: WNK2
WNK3 = tested on: WNK3
WNK4 = tested on: WNK4
YANK1 = tested on: T3, YANK1
T3 construct: gene STK32A

YANK2 = tested on: T4, YANK2
T4 construct: gene STK32B

YANK3 = tested on: T5, YANK3
T5 construct: gene STK32C

YES = tested on: T6, YES
T6 construct: gene YES1
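Further: KINOMEscan kinase panel screen.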

| SMILES | %Inh (TXK) [%] | %Inh [1] [%] | %Inh [2] [%] | %Inh (TYRO3) [%] | %Inh (ULK1) [%] | %Inh (ULK2) [%] | %Inh (ULK3) [%] | %Inh (VEGFR2) [%] | %Inh (VPS34) [%] | %Inh (VRK2) [%] | %Inh (WEE1) [%] | %Inh (WEE2) [%] | %Inh (WNK1) [%] | %Inh (WNK2) [%] | %Inh (WNK3) [%] | %Inh (WNK4) [%] | %Inh (YANK1) [%] | %Inh (YANK2) [%] | %Inh (YANK3) [%] | %Inh (YES) [%] |
| --- | --- | --- | --- | --- | --- | --- | --- | --- | --- | --- | --- | --- | --- | --- | --- | --- | --- | --- | --- | --- |
| O=C1NC(=O)C(c2ccccc2)=C1Nc1cc(Cl)c(O)c(Cl)c1 [SB-390530] | 16 | 7 | 2 | 0 | 8 | 0 | 0 | 20 | 0 | 0 | 8 | 0 | 0 | 14 | 0 | 10 | 3 | 0 | 32 | 0 |
| COc1ccc(C2=C(Nc3cccc(Cl)c3)C(=O)NC2=O)cc1 [SB-326892] | 20 | 0 | 0 | 47 | 0 | 0 | 12 | 0 | 7 | 0 | 19 | 7 | 0 | 0 | 0 | 0 | 0 | 0 | 0 | 0 |
| O=C1NC(=O)C(c2ccc(Cl)cc2)=C1Nc1ccccc1 [SB-317661] | 0 | 14 | 41 | 0 | 33 | 32 | 31 | 4 | 45 | 12 | 0 | 0 | 2 | 0 | 15 | 24 | 0 | 0 | 0 | 0 |
| O=C1NC(=O)C(c2ccccc2)=C1Nc1ccc(Cl)c(C(=O)O)c1 [SB-390532] | 19 | 37 | 53 | 0 | 1 | 0 | 13 | 1 | 0 | 49 | 35 | 0 | 13 | 21 | 49 | 50 | 0 | 0 | 13 | 16 |
| O=C1NC(=O)c2c1c(-c1ccccc1)cc1[nH]c3ccc(O)cc3c21 | 0 | 30 | 53 | 0 | 24 | 51 | 92.9 | 30 | 0 | 0 | 32 | 85 | 0 | 29 | 0 | 14 | 5 | 0 | 0 | 13 |
| O=C1NC(=O)C(c2ccccc2Cl)=C1Nc1ccccc1 [SB-376715] | 3 | 0 | 0 | 0 | 4 | 0 | 2 | 0 | 12 | 0 | 3 | 0 | 24 | 2 | 30 | 0 | 0 | 0 | 0 | 0 |
| Cc1cc(C)cc(Oc2nccc(-c3c(-c4ccc(F)cc4)ncn3C3CCNCC3)n2)c1.O=C(O)C(F)(F)F.O=C(O)C(F)(F)F.O=C(O)C(F)(F)F [SB-284851] | 21 | 0 | 6 | 0 | 0 | 0 | 19 | 0 | 9 | 0 | 14 | 0 | 0 | 0 | 0 | 0 | 56 | 88 | 0 | 0 |
| CSc1ccc(NC2=C(c3cccc(Cl)c3)C(=O)NC2=O)cc1 [SB-341528] | 0 | 0 | 0 | 0 | 0 | 0 | 0 | 0 | 0 | 0 | 0 | 0 | 0 | 0 | 0 | 0 | 0 | 9 | 0 | 0 |
| O=C1NC(=O)C(c2ccc(Cl)cc2)=C1Nc1cccc(C(=O)O)c1 [SB-360737] | 24 | 12 | 44 | 0 | 23 | 0 | 14 | 0 | 0 | 0 | 14 | 10 | 14 | 8 | 29 | 0 | 2 | 13 | 10 | 10 |
| O=C1NC(=O)C(c2ccc(Cl)cc2)=C1Nc1ccc(O)c(Cl)c1 [SB-405367] | 0 | 2 | 0 | 0 | 7 | 8 | 16 | 0 | 0 | 0 | 0 | 6 | 0 | 0 | 0 | 0 | 0 | 14 | 0 | 0 |
| O=C1NC(=O)C(c2ccc(Cl)cc2)=C1Nc1cccc(O)c1 [SB-333613] | 0 | 27 | 42 | 0 | 39 | 17 | 42 | 12 | 0 | 18 | 35 | 0 | 36 | 0 | 47 | 46 | 0 | 0 | 0 | 0 |
| CS(=O)(=O)c1ccccc1-c1nc(-c2ccc(F)cc2)c(-c2ccncc2)[nH]1 [SB-213663] | 29 | 19 | 0 | 0 | 0 | 8 | 10 | 0 | 0 | 92.2 | 0 | 9 | 0 | 0 | 0 | 0 | 63 | 71 | 0 | 0 |
| O=C(O)c1ccc(-c2nc(-c3ccc(F)cc3)c(-c3ccncc3)[nH]2)cc1 [SB-202620] | 21 | 0 | 4 | 0 | 9 | 22 | 16 | 0 | 17 | 0 | 14 | 2 | 20 | 0 | 0 | 0 | 9 | 100 | 24 | 0 |
| Cc1ccc(C)c(Oc2nccc(-c3c(-c4ccc(F)cc4)ncn3C3CCNCC3)n2)c1.O=C(O)C(F)(F)F.O=C(O)C(F)(F)F.O=C(O)C(F)(F)F [SB-284852] | 12 | 0 | 0 | 0 | 0 | 0 | 0 | 0 | 0 | 0 | 6 | 14 | 0 | 1 | 0 | 0 | 80 | 87 | 41 | 1 |
| O=C1NC(=O)C(c2ccccc2Cl)=C1Nc1cccc(C(=O)O)c1 [SB-390526] | 4 | 7 | 13 | 0 | 27 | 0 | 100 | 8 | 29 | 0 | 0 | 9 | 0 | 14 | 28 | 0 | 2 | 0 | 2 | 9 |
| COc1cccc(C2=C(Nc3ccc(SC)cc3)C(=O)NC2=O)c1 [SB-331032] | 0 | 40 | 26 | 16 | 34 | 24 | 34 | 4 | 18 | 34 | 0 | 2 | 2 | 0 | 6 | 17 | 0 | 0 | 0 | 0 |
